The list shows a part of the results. The energies were worked out here from pooled read counts, against the library average; single values are noisy.
Biological target: T1, Pho4 (S. cerevisiae) (UniProt P07270)
T1 sequence: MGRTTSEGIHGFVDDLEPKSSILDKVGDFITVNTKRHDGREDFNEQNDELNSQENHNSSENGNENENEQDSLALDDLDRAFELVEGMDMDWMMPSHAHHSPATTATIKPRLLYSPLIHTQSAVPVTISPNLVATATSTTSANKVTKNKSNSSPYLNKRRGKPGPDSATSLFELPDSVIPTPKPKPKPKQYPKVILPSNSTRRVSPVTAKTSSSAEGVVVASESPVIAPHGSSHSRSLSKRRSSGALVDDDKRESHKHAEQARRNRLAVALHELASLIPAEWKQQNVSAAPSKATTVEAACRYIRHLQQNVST
Test: relative binding free energy (BET-seq); higher = weaker binding
Settings: reference: library average

Sequence	relative binding free energy
GTGTACACGTGGAGCA	0.19 kcal/mol
GTGTGCACGTGTTTAA	-0.04 kcal/mol
AATTACACGTGGCGGG	-0.05 kcal/mol
GCTAGCACGTGTATGT	-0.06 kcal/mol
GTTGACACGTGAGGAC	0.34 kcal/mol
GGGATCACGTGGTAGG	0.15 kcal/mol
AGGGTCACGTGGATGC	0.07 kcal/mol
TCTGTCACGTGGAGGT	0 kcal/mol
GGGGGCACGTGTTCAA	-0.06 kcal/mol
GTGCACACGTGCAGGG	0.09 kcal/mol
CGAGGCACGTGGGGGC	-0.23 kcal/mol
TATATCACGTGAACTT	0.52 kcal/mol
GGTTACACGTGGCGCG	0.18 kcal/mol
TGGCTCACGTGTTAAG	0.3 kcal/mol
GTGCGCACGTGTGAAG	-0.03 kcal/mol
GTTTACACGTGATAAA	0.47 kcal/mol
CATTGCACGTGCGGGT	-0.13 kcal/mol
ACGTTCACGTGATGGG	0.27 kcal/mol
GTAGACACGTGGAATT	0.28 kcal/mol
ATATACACGTGTGTGT	-0.02 kcal/mol
TGGGCCACGTGTAGGC	0.01 kcal/mol
AGGTTCACGTGTCGTT	0.34 kcal/mol
GTGGGCACGTGTCCGG	-0.12 kcal/mol
AAGTGCACGTGTCAGG	-0.04 kcal/mol
TCTGTCACGTGTTTGG	0.2 kcal/mol
TGTAGCACGTGGATGA	-0.09 kcal/mol

Sequence	relative binding free energy
TTCGTCACGTGAGGTC	0.38 kcal/mol
TAAAGCACGTGGTCGT	-0.15 kcal/mol
TGGGTCACGTGACAGG	0.26 kcal/mol
TACGTCACGTGTTAGT	0.07 kcal/mol
GGCTTCACGTGAATGT	0.35 kcal/mol
CGGAGCACGTGAGTGG	0.15 kcal/mol
GAGTTCACGTGTTGAG	0.34 kcal/mol
ATATGCACGTGGCTTG	-0.08 kcal/mol
GTGATCACGTGTCAGT	0.12 kcal/mol
GAGAGCACGTGGGGGA	-0.2 kcal/mol
AGATGCACGTGCCGGG	-0.05 kcal/mol
ATGAGCACGTGGAGTC	0.05 kcal/mol
AGGTACACGTGAGGGT	0.26 kcal/mol
TTCGGCACGTGTGTTC	-0.04 kcal/mol
GGTTTCACGTGTCGGT	0.3 kcal/mol
TTAGGCACGTGGCTGT	-0.21 kcal/mol
GGGTACACGTGGGCAG	0 kcal/mol
TAACTCACGTGTTTGG	0.16 kcal/mol
AGTTGCACGTGCTAGT	-0.09 kcal/mol
TATGGCACGTGGAGCG	-0.1 kcal/mol
AGACGCACGTGGAGCG	0.01 kcal/mol
GTTGTCACGTGCAATG	0.05 kcal/mol
TAGTGCACGTGTAAGT	0.06 kcal/mol
CTTGTCACGTGTGAAG	0.32 kcal/mol
GTGCGCACGTGGATGT	-0.08 kcal/mol
TATTGCACGTGTAGTT	0.1 kcal/mol

Sequence	relative binding free energy
GTTTGCACGTGTCTGG	0.06 kcal/mol
AGGGGCACGTGGCAGC	-0.24 kcal/mol
TGTGCCACGTGGGATT	-0.19 kcal/mol
TTAGACACGTGGGTTA	-0.11 kcal/mol
GGGGACACGTGGTAGA	0.02 kcal/mol
AGTGGCACGTGGTCTA	-0.43 kcal/mol
AGGGTCACGTGGAGAC	0.04 kcal/mol
ATTATCACGTGGTCTA	0.03 kcal/mol
GTTGTCACGTGGGCGT	0.03 kcal/mol
AGTGGCACGTGTCAAG	0.06 kcal/mol
TGAATCACGTGCTTGT	0.05 kcal/mol
GGGTACACGTGACGTG	0.3 kcal/mol
ACGGGCACGTGAAGTT	0.13 kcal/mol
TTATACACGTGTGTAT	-0.01 kcal/mol
GAGGCCACGTGAGTTG	0.31 kcal/mol
CTTTGCACGTGAGTGT	0.15 kcal/mol
AGTTTCACGTGGCGGA	0.21 kcal/mol
GGGGTCACGTGGCAGC	0.04 kcal/mol
CAGGGCACGTGGGAAG	-0.14 kcal/mol
TTTGGCACGTGAAGTG	0.13 kcal/mol
GAGGTCACGTGTGCGG	0.11 kcal/mol
AGGTGCACGTGTTATC	0.01 kcal/mol
TGGGGCACGTGTGCGT	-0.1 kcal/mol
AATAGCACGTGATGCT	0.17 kcal/mol
AGGTACACGTGCTGGG	0 kcal/mol
GTCGTCACGTGTAGAG	0.12 kcal/mol

Sequence	relative binding free energy
TTAAGCACGTGCTTTT	-0.24 kcal/mol
CTTGTCACGTGGAGCG	0.13 kcal/mol
GTTGGCACGTGAGATT	0.25 kcal/mol
TTATACACGTGCGATT	0.04 kcal/mol
ATTGTCACGTGTCTCG	0.14 kcal/mol
CTGGGCACGTGCTTTG	-0.18 kcal/mol
ATGTTCACGTGTATGT	0.29 kcal/mol
GCGTCCACGTGAGTGG	0.31 kcal/mol
GTTTCCACGTGTTTTG	0.12 kcal/mol
GGTGTCACGTGCACGG	0.08 kcal/mol
GAGGTCACGTGTGTTG	0.09 kcal/mol
ATTGGCACGTGTGTAT	-0.02 kcal/mol
GGTATCACGTGCTGTG	0.19 kcal/mol
TTGACCACGTGTTAGT	-0.05 kcal/mol
GTCAGCACGTGGGGGT	-0.24 kcal/mol
GTAAACACGTGGTAGT	-0.11 kcal/mol
CAGATCACGTGGGGGA	0.01 kcal/mol
TCGGGCACGTGAGGGC	0.1 kcal/mol
ATGCTCACGTGGTTTT	0.34 kcal/mol
CTGTACACGTGATATT	0.15 kcal/mol
CTGTTCACGTGCGTGT	0.13 kcal/mol
GTTGGCACGTGGGCTC	-0.24 kcal/mol
AAGTGCACGTGGGTAC	-0.08 kcal/mol
GTTCGCACGTGGGTTA	-0.14 kcal/mol
TGTATCACGTGGTTTT	0.1 kcal/mol
TGTCGCACGTGGGAGA	-0.07 kcal/mol

Sequence	relative binding free energy
GTGTCCACGTGTGTTT	0.08 kcal/mol
TGTGTCACGTGCTCGA	0.02 kcal/mol
CCGTTCACGTGGGGTG	0.12 kcal/mol
AGTTTCACGTGATATG	0.31 kcal/mol
TGCCTCACGTGCGGGG	0.1 kcal/mol
TATTACACGTGGTAGA	-0.07 kcal/mol
ATTTACACGTGGTTTC	0.08 kcal/mol
ACGTTCACGTGGGGAA	0.11 kcal/mol
GGTTCCACGTGATGTT	0.21 kcal/mol
GTGCGCACGTGTTTTG	0.02 kcal/mol
ATGTTCACGTGGGTGA	0.2 kcal/mol
GATTTCACGTGGGATG	0.27 kcal/mol
CGCGTCACGTGAGTGG	0.13 kcal/mol
GCTTTCACGTGTGTAG	0.23 kcal/mol
TATTTCACGTGTGGGC	0.3 kcal/mol
GCTCGCACGTGGTGGT	-0.1 kcal/mol
AGAGGCACGTGAGTCG	0.05 kcal/mol
ATGCACACGTGGCGTT	0.12 kcal/mol
TAAAGCACGTGTAGTG	-0.11 kcal/mol
TTAAACACGTGGTGTC	-0.07 kcal/mol
TCGGGCACGTGAGAAT	0.29 kcal/mol
GTCTTCACGTGGTCGG	0.26 kcal/mol
ATTTGCACGTGGAGTG	0.03 kcal/mol
TTAGCCACGTGTATTA	0.18 kcal/mol
TTGGTCACGTGAGGTT	0.49 kcal/mol
TATGACACGTGTCGAT	0.06 kcal/mol

Sequence	relative binding free energy
CTTATCACGTGGTGAA	0.11 kcal/mol
GCTCACACGTGGAGTG	0.34 kcal/mol
GCTGGCACGTGGTGTA	-0.22 kcal/mol
ATGAGCACGTGTTATA	-0.09 kcal/mol
ATGAACACGTGGTATT	-0.02 kcal/mol
GGAGGCACGTGTCGGG	-0.11 kcal/mol
GGAATCACGTGTGAGG	0.14 kcal/mol
TGAAACACGTGTAGTG	-0.05 kcal/mol
GGGTTCACGTGTCGGT	0.46 kcal/mol
GAGATCACGTGTTTGA	0.14 kcal/mol
TTTGCCACGTGATTTT	0.24 kcal/mol
ATACGCACGTGGTGAG	-0.16 kcal/mol
TATGTCACGTGTCCGG	-0.01 kcal/mol
AGTGGCACGTGGTGCG	-0.19 kcal/mol
GGGGACACGTGTCTGG	0 kcal/mol
GGGTTCACGTGGCTCG	0.39 kcal/mol
GATTACACGTGGTTTG	0.12 kcal/mol
TTTTGCACGTGCCGGG	0.01 kcal/mol
AGTTCCACGTGTTTTG	-0.04 kcal/mol
GAATACACGTGGTGTA	0.06 kcal/mol
ATGGTCACGTGCGTAG	0.08 kcal/mol
GGGTCCACGTGTGTAT	0.02 kcal/mol
AAGGGCACGTGGGGGT	-0.16 kcal/mol
AGTAGCACGTGTGTAA	0 kcal/mol
ATGAACACGTGGGGAG	-0.01 kcal/mol
TATGGCACGTGAGAAG	0.25 kcal/mol

Sequence	relative binding free energy
GCGGTCACGTGAGATG	0.35 kcal/mol
AGATGCACGTGTTAGT	-0.12 kcal/mol
TACGGCACGTGAATTT	0.25 kcal/mol
TGGGACACGTGCTGAG	0.09 kcal/mol
TAGTTCACGTGAGTAA	0.3 kcal/mol
ATGGTCACGTGGCGAT	0.02 kcal/mol
TTAATCACGTGTTGTG	-0.01 kcal/mol
TGGATCACGTGGTCTT	0.15 kcal/mol
TTGGACACGTGTTGCA	0 kcal/mol
GTTACCACGTGGTTTT	0.03 kcal/mol
AGTAGCACGTGGTTTG	-0.15 kcal/mol
CGGGTCACGTGGATGG	0.06 kcal/mol
GTGATCACGTGAAGTA	0.27 kcal/mol
CTGCGCACGTGGTCGG	-0.21 kcal/mol
GTCTACACGTGGGGAT	0.1 kcal/mol
TGGGGCACGTGTTCTC	-0.07 kcal/mol
GTAGCCACGTGGAGGA	0.07 kcal/mol
ATGGTCACGTGCTTGG	0.09 kcal/mol
GCTTACACGTGGTAGT	0.09 kcal/mol
GGGTACACGTGGCATG	0.08 kcal/mol
AAGTTCACGTGGTGGC	0.17 kcal/mol
GTTTTCACGTGAGCTG	0.37 kcal/mol
CTATGCACGTGGGGAG	-0.21 kcal/mol
TTGTGCACGTGGCTTT	-0.04 kcal/mol
TAACGCACGTGGTGTG	-0.28 kcal/mol
AGTTGCACGTGGGATG	-0.16 kcal/mol

Sequence	relative binding free energy
ACTAGCACGTGAGGTT	0.24 kcal/mol
AGATGCACGTGTATAT	0.08 kcal/mol
TGTTGCACGTGGGGCT	-0.14 kcal/mol
CGTTTCACGTGAGGTG	0.44 kcal/mol
CTTGGCACGTGAAGTG	0.24 kcal/mol
AGGCTCACGTGCGGGG	0.14 kcal/mol
TATAACACGTGTTAGG	0.01 kcal/mol
ATTGACACGTGATTAG	0.27 kcal/mol
CGTTTCACGTGTGGAG	0.16 kcal/mol
CGTTACACGTGTATTT	0 kcal/mol
TAGGGCACGTGCTGGA	-0.34 kcal/mol
GAGTCCACGTGATGTT	0.28 kcal/mol
GTTAACACGTGAAATG	0.33 kcal/mol
TGTCTCACGTGTGCTT	0.21 kcal/mol
GTGATCACGTGCGGTA	0.11 kcal/mol
ATGAGCACGTGGCGCG	-0.2 kcal/mol
GAGTGCACGTGTATTA	-0.01 kcal/mol
AATTTCACGTGTCTAT	0.27 kcal/mol
GTGGTCACGTGTTACT	0.12 kcal/mol
GAGTCCACGTGGGTGT	-0.09 kcal/mol
TTGCTCACGTGGTTAA	0.21 kcal/mol
GAGGCCACGTGTGGTA	0.15 kcal/mol
CGGGACACGTGGGGAG	-0.13 kcal/mol
GTATGCACGTGGTGCT	-0.12 kcal/mol
GGTGTCACGTGAGACT	0.13 kcal/mol
TGTCACACGTGAATTG	0.33 kcal/mol

Sequence	relative binding free energy
AATTGCACGTGGAGCG	0.04 kcal/mol
TTCAGCACGTGGGGAA	-0.19 kcal/mol
GTAGACACGTGTGGAT	0.2 kcal/mol
AGGTACACGTGTTTTT	0.03 kcal/mol
GCTTACACGTGGAGGG	0.07 kcal/mol
ATGGACACGTGGTACT	0.01 kcal/mol
TCGTTCACGTGTCTGG	0.39 kcal/mol
TGTTGCACGTGTCGCA	-0.04 kcal/mol
AATCACACGTGGGGTA	-0.04 kcal/mol
GGGGTCACGTGTGGTG	0.22 kcal/mol
TCAGTCACGTGTTTTG	0.08 kcal/mol
ATTATCACGTGTGCGT	0.26 kcal/mol
GTTCCCACGTGTGGTT	0 kcal/mol
AGTGTCACGTGGAGCA	0.21 kcal/mol
CTTTGCACGTGTGTTA	0.02 kcal/mol
ATTTTCACGTGCGTTT	0.28 kcal/mol
ATTTTCACGTGGCAAT	0.37 kcal/mol
GCTTACACGTGGTTTG	0.08 kcal/mol
TTTTGCACGTGTCGTT	-0.02 kcal/mol
ACGGGCACGTGAGCGG	0.07 kcal/mol
CTGATCACGTGTTGGG	0.07 kcal/mol
TAGCGCACGTGGACGG	-0.02 kcal/mol
